Assay results taken from article PMC4957354.
These are yes or no findings as the source states them, for the method shown. Binding seen in cells or lysates may run through a third protein. Some binding calls cover weakened binding; strength is not graded here. Tags and fused reporters may be left off the sequences shown.

The chains behind the UniProt entries cited, without tags or fusion partners.
UniProt Q43125: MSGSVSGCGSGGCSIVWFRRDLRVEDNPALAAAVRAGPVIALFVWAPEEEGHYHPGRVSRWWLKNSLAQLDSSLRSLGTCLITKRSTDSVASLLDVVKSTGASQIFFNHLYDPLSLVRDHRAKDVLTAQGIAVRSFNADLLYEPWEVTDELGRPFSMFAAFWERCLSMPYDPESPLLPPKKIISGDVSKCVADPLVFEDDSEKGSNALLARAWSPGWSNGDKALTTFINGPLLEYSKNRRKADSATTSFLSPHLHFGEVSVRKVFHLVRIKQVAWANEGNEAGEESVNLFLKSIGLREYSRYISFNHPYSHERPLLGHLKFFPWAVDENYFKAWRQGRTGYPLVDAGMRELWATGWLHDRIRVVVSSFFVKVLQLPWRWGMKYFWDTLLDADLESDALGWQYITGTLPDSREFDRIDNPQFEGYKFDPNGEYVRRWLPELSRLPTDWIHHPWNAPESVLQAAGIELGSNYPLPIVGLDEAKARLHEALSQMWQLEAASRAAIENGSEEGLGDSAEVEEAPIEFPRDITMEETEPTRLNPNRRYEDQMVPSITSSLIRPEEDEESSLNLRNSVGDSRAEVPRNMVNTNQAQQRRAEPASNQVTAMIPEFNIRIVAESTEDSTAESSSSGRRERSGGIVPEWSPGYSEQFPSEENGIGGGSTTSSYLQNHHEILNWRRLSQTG

T1: DS_122-HA (chimeric SPA1/SPA2 domain-swap protein: N-terminal domain of SPA1, coiled-coil and WD-repeat domains of SPA2) (Arabidopsis thaliana) (UniProt Q9SYX2+Q9T014)
T1 sequence: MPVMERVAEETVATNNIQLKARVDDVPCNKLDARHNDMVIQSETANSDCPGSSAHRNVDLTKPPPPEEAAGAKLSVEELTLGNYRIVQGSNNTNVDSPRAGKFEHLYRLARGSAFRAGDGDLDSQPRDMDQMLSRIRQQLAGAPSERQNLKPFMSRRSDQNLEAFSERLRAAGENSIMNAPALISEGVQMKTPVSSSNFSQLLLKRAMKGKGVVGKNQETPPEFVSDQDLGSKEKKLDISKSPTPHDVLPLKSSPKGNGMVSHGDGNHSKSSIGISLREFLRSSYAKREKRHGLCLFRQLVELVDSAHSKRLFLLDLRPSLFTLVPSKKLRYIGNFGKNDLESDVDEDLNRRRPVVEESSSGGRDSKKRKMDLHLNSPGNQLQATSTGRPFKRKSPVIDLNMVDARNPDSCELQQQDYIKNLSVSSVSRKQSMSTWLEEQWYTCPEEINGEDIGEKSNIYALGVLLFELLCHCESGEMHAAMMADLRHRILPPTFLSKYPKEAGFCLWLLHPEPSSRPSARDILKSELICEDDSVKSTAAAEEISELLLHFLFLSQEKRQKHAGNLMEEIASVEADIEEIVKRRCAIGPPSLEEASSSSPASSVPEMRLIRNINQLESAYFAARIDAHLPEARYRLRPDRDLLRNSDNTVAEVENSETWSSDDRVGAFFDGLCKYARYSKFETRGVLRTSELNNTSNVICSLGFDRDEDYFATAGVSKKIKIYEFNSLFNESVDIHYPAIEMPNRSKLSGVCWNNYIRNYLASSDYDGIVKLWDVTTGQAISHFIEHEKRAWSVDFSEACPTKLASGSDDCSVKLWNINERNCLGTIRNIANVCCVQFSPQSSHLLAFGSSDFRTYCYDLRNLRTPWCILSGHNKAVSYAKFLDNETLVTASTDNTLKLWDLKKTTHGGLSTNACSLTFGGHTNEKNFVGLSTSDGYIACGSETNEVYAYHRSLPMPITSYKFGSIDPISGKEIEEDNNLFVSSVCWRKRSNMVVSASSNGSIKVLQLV

T2: SPA1-HA (SUPPRESSOR OF PHYA-105 1, full-length, C-terminal HA tag) (Arabidopsis thaliana) (UniProt Q9SYX2)
T2 sequence: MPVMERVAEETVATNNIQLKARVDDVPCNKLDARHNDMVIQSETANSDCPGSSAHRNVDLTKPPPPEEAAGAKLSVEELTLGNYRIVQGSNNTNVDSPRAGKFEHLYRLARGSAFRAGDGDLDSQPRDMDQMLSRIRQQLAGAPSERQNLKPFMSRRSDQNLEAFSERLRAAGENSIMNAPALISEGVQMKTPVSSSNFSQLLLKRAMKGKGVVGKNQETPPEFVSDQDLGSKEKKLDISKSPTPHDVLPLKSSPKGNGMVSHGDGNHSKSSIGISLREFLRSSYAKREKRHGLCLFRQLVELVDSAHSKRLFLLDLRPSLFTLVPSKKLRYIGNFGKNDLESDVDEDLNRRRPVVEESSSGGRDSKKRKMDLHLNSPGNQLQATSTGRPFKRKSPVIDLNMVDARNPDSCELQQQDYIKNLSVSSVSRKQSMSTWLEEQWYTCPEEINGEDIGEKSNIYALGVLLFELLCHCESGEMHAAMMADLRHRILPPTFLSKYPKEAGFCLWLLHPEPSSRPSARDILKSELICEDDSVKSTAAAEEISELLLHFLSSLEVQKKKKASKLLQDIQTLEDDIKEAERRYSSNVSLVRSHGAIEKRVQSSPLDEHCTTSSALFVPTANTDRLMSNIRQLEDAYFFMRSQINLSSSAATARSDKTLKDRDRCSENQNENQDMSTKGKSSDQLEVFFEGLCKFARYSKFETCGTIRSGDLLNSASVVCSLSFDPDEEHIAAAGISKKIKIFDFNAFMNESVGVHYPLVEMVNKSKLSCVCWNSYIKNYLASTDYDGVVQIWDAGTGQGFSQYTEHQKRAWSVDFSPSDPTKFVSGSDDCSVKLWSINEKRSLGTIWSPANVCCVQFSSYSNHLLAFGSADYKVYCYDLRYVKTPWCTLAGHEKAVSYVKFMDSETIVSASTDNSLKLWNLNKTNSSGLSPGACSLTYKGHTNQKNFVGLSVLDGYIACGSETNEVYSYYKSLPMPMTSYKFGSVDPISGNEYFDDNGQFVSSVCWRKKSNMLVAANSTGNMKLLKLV

T3: SPA2-HA (SUPPRESSOR OF PHYA-105 2, full-length, C-terminal HA tag) (Arabidopsis thaliana) (UniProt Q9T014)
T3 sequence: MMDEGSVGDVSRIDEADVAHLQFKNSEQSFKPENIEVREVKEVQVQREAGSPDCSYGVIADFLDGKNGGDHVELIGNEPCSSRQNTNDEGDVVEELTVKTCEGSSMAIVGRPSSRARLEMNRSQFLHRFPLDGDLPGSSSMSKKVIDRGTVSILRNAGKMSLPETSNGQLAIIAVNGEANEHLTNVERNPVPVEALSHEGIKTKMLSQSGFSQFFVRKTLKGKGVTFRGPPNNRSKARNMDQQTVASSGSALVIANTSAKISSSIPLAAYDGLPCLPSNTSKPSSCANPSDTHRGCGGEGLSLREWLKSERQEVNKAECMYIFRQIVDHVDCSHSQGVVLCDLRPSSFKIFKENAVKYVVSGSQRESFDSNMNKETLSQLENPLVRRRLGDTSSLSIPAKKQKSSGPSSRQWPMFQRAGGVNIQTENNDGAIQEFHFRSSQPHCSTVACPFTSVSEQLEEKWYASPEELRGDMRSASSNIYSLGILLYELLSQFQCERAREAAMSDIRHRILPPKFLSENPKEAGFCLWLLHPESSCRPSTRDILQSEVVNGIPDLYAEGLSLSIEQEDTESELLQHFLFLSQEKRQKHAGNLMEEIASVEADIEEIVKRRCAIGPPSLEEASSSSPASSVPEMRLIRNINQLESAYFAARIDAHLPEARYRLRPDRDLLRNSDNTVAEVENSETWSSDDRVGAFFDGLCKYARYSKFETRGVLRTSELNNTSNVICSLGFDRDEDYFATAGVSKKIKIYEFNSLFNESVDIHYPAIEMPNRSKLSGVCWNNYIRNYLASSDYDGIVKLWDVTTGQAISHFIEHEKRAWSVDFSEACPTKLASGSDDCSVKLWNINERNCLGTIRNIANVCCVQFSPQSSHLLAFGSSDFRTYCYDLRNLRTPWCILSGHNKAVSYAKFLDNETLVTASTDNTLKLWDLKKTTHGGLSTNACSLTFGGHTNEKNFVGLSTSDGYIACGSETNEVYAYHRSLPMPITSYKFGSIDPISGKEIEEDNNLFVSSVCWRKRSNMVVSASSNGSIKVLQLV

T4: SPA2-HA (SUPPRESSOR OF PHYA-105 2, full-length, C-terminal HA tag) (Arabidopsis thaliana), Q9T014
T4 chain: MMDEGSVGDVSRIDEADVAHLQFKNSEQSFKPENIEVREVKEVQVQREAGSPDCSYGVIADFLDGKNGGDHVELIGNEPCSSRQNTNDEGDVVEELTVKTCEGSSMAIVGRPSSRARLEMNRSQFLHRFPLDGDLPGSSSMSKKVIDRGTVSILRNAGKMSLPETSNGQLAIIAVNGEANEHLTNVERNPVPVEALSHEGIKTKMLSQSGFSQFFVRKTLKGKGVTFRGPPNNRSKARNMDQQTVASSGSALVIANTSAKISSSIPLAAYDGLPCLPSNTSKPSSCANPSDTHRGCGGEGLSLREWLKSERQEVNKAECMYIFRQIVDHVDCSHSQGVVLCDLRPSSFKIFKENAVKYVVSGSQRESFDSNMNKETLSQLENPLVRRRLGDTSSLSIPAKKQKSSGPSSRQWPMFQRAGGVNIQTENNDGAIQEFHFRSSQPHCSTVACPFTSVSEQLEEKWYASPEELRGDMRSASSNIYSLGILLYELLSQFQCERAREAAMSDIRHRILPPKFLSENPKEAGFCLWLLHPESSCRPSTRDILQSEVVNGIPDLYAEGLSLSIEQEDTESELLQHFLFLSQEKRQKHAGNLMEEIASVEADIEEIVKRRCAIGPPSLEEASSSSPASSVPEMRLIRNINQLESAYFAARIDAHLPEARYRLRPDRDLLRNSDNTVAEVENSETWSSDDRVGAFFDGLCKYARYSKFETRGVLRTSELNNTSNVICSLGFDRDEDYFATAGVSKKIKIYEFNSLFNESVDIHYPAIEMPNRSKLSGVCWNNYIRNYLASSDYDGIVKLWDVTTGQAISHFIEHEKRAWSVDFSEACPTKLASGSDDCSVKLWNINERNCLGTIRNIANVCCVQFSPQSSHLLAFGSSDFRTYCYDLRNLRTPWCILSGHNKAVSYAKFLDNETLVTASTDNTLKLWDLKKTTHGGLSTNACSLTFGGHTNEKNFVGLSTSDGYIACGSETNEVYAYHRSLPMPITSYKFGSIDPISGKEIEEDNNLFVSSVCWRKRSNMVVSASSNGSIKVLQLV


Legend:
Test in all cases: co-IP; SPA-HA proteins immunoprecipitated with α-HA beads (μMACS Anti-HA Starting Kit) from extracts of 4-day-old dark-grown seedlings transferred to 50 μmol m^-2 s^-1 B for 1 h; seedlings pre-incubated in 100 μM MG132 and 10 μM clasto-lactacystin β-lactone; cry1 and cry2 detected with α-cry1 and α-cry2 antibodies; five times more extract for SPA1::SPA2-HA 64 and DS_122-HA 27
[1] = biological target: T1, DS_122-HA (chimeric SPA1/SPA2 domain-swap protein: N-terminal domain of SPA1, coiled-coil and WD-repeat domains of SPA2) (Arabidopsis thaliana)
[2] = biological target: T2, SPA1-HA (SUPPRESSOR OF PHYA-105 1, full-length, C-terminal HA tag) (Arabidopsis thaliana)
[3] = biological target: T3, SPA2-HA (SUPPRESSOR OF PHYA-105 2, full-length, C-terminal HA tag) (Arabidopsis thaliana)
[4] = biological target: T4, SPA2-HA (SUPPRESSOR OF PHYA-105 2, …); details: remark: other sources report otherwise

binding [1]	binding [2]	binding [3]	binding [4]	Molecule
binds	–	–	–	cryptochrome 2 (from UniProt Q96524 1-612) (receptor)
binds	binds	binds	–	cryptochrome 1 (from UniProt Q43125 1-681) (receptor)
–	–	–	no binding	cryptochrome 2, Q96524 1-612 (receptor) MKMDKKTIVWFRRDLRIEDNPALAAAAHEGSVFPVFIWCPEEEGQFYPGRASRWWMKQSLAHLSQSLKALGSDLTLIKTHNTISAILDCIRVTGATKVVFNHLYDPVSLVRDHTVKEKLVERGISVQSYNGDLLYEPWEIYCEKGKPFTSFNSYWKKCLDMSIESVMLPPPWRLMPITAAAEAIWACSIEELGLENEAEKPSNALLTRAWSPGWSNADKLLNEFIEKQLIDYAKNSKKVVGNSTSLLSPYLHFGEISVRHVFQCARMKQIIWARDKNSEGEESADLFLRGIGLREYSRYICFNFPFTHEQSLLSHLRFFPWDADVDKFKAWRQGRTGYPLVDAGMRELWATGWMHNRIRVIVSSFAVKFLLLPWKWGMKYFWDTLLDADLECDILGWQYISGSIPDGHELDRLDNPALQGAKYDPEGEYIRQWLPELARLPTEWIHHPWDAPLTVLKASGVELGTNYAKPIVDIDTARELLAKAISRTREAQIMIGAAPDEIVADSFEALGANTIKEPGLCPSVSSNDQQVPSAVRYNGSKRVKPEEEEERDMKKSRGFDERELFSTAESSSSSSVFFVSQSCSLASEGKNLEGIQDSSDQITTSLGKNGCK
